Measurements as given in PubChem BioAssay AID1745853 (National Center for Advancing Translational Sciences (NCATS), 2022).
This is one part of the list. Further columns of the screen follow, without active or inactive calls.

What was measured:
Assay in all cases: Primary Screen for Target Class Profiling of Small Molecule Inhibitors of Methyltransferases
[1] = molecular target: Glycine N-methyltransferase (Homo sapiens) (UniProt Q14749); conditions: purified enzyme, MTase-Glo SAH luminescence; measured here: GNMT inhibition; at 40 µM; stronger effect = lower value
Method in brief: (§1)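 Each enzyme was assayed with SAM and its substrate. SAH formation detected by MTase-Glo luminescence; single-point 40 uM screen[…].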

[2] = molecular target: Guanidinoacetate N-methyltransferase (Homo sapiens) (UniProt Q14353); conditions: purified enzyme, MTase-Glo SAH luminescence; measured here: GAMT inhibition; at 40 µM; stronger effect = lower value
Method in brief: as §1

[3] = molecular target: Histamine N-methyltransferase (Homo sapiens) (UniProt P50135); conditions: purified enzyme, MTase-Glo SAH luminescence; measured here: HNMT inhibition; at 40 µM; stronger effect = lower value
Method in brief: as §1

[4] = molecular target: Nicotinamide N-methyltransferase (Homo sapiens) (UniProt P40261); conditions: purified enzyme, MTase-Glo SAH luminescence; measured here: NNMT inhibition; at 40 µM; stronger effect = lower value
Method in brief: as §1

[5] = molecular target: Phenylethanolamine N-methyltransferase (Homo sapiens) (UniProt P11086); conditions: purified enzyme, MTase-Glo SAH luminescence; measured here: PNMT inhibition; at 40 µM; stronger effect = lower value
Method in brief: as §1
% is set by controls: 0 for no effect and ±100 for the full control effect.

SMILES	activity change, negative = inhibition [1]	activity change, negative = inhibition [2]	activity change, negative = inhibition [3]	activity change, negative = inhibition [4]	activity change, negative = inhibition [5]
O=C1NC(=NC2CCCCC2)C2(CCN(Cc3ccccc3)C2)N1c1cccnc1 (stereo not given)	-5.83%	-7.73%	-2.22%	-20%	-4.74%
CCC1C(=O)N(C)CCN1C(=O)c1coc(COc2ccc3c(c2)OCO3)n1 (stereo not given)	-6.17%	-5.25%	-3%	-7.95%	-3.32%
CCCN1C(=O)c2c(C(=O)NCCC3=CCCCC3)ncn2CC1(C)C(=O)NCc1ccc(F)cc1 (stereo not given)	1.06%	0.865%	8.93%	-1.14%	7.98%
CC1(CO)CCCC2(C)C1C(OC(=O)c1ccccc1)C=C1C(=O)OCC12O (stereo not given)	0%	4.13%	2.66%	-11.2%	4.87%
O=c1cc(-c2ccccn2)oc2c(Nc3cccnc3)nccc12	-26.2%	-5.58%	-7.69%	-11.4%	-5.2%
Cc1nc2cccnc2n1CC1CCCN(S(=O)(=O)c2ccc3c(c2)OCCO3)C1 (stereo not given)	-72.2%	1.09%	-2.32%	-7.58%	1.51%
C=CC(C)(C)c1[nH]c2cc3c(cc2c1CC1NC(=O)C2CCCN2C1=O)C=CC(C)(C)O3 (stereo not given)	0%	7.68%	6.91%	-10.4%	7.12%
COc1cccc(C(=O)Cn2nc3n(C)c(=O)c4ccc(C(=O)NC5CCCC5)cc4n3c2=O)c1	4.96%	0%	2.83%	6.38%	5.83%
O=C(NCC1CCOCC1)C1COc2ccccc2O1 (stereo not given)	-2.19%	-6.16%	-0.198%	-8.43%	-9.36%
Cc1cc(NC(=O)C2CCN(c3cc(C(F)(F)F)ncn3)CC2)ccc1Br	-11.9%	-6.89%	-2.99%	-12.7%	-8.68%
Cc1ccc(C)c(N2CCN(C(=O)CCc3nnc4n(Cc5ccc(F)cc5)c(=O)c5ccccc5n34)CC2)c1	-2.01%	3.15%	3.33%	1.52%	-3.19%
CC1(C(=O)NC2CCCC2)Cn2c(cc3ccccc32)C(=O)N1Cc1ccco1 (stereo not given)	-8.34%	4.12%	0.032%	-3.96%	-0.996%
CC(C)c1ccc2c(c1)C(=O)CC1[C@@](C)(C(=O)O)CCC[C@]21C (stereo not given in full)	-2.51%	-3.24%	4.92%	-14.9%	1.33%
Cc1ccc(C(=O)CSc2nnc3n(CC(C)C)c(=O)c4ccc(C(=O)NC(C)C)cc4n23)c(C)c1	1.85%	2.43%	3.93%	-4.08%	-3.11%
CCn1ccc(C(=O)N2CCC3(CC2)CC(N(C(=O)c2ccccc2)C2CC2)CCO3)n1 (stereo not given)	-1.98%	0.32%	-3.36%	-3.9%	-4.15%
Cc1nn(C)c(C)c1CCC(=O)NC1CCc2nnc(C3CC3)n2CC1 (stereo not given)	-2.62%	-1.03%	1.47%	-1.04%	-4.83%
CC(=O)c1c(O)cc2cccc3c2c1CC(C)(O)O3 (stereo not given)	-0.183%	-7.4%	-9.71%	-19%	-11.3%
CC(C)c1ccc(NC(=O)Cn2cnc3c2c(=O)n(C)c(=O)n3C)cc1	-1.64%	-1.81%	9.39%	-20.3%	0.133%
CC1CCCCN1CCN1C(=O)c2cc3ccccc3n2CC1(C)C(=O)NC1CCCCCCC1 (stereo not given)	-3.6%	0.749%	-8.02%	-13.9%	-7.22%
Cc1ccc(CNC(=O)CN(C)S(=O)(=O)c2ccc3[nH]c4c(c3c2)CCCC4)cc1	-3.97%	3.03%	2.04%	-2.43%	-0.484%

SMILES	activity change, negative = inhibition [1]	activity change, negative = inhibition [2]	activity change, negative = inhibition [3]	activity change, negative = inhibition [4]	activity change, negative = inhibition [5]
CSc1ccc(CCNC(=O)C(C)n2ccc3cc(S(=O)(=O)N4CCCC4)ccc32)cc1 (stereo not given)	-3%	2.36%	-6.84%	-3.6%	-3.31%
CCCn1c(=O)c2ccc(C(=O)NC(C)C)cc2n2c(=O)n(CC(=O)NC3CCCC3)nc12	7.76%	1.29%	5.26%	9.35%	8.15%
C=C1C(OC(C)=O)C(=O)C2C(C)(C)C(O)CCC2(C)C1CC(OC(C)=O)/C(C)=C/COC(C)=O (stereo not given)	-3.02%	-5.94%	9.39%	-17.6%	-10.7%
CCc1cc2c(cc3n2CC(C)(C(=O)NC2CCCCCC2)N(CCN2CCOCC2)C3=O)s1 (stereo not given)	1.18%	4.73%	-0.864%	-3.2%	-0.202%
CC1(C(=O)NC2CCCCCCC2)Cn2c(ccc2-c2ccco2)C(=O)N1Cc1ccccn1 (stereo not given)	-11.4%	2.75%	-0.527%	-11.5%	-7%
CCOc1ccc(NC(=O)N2CCn3cccc3C2C(C)C)cc1 (stereo not given)	6.86%	0%	3.71%	2.74%	4.35%
CCC(CC)n1ccc2c(C(=O)NCc3c(C)cc(C)[nH]c3=O)cc(C#N)cc21	1.3%	0.316%	2.29%	-26.4%	-18.4%
COc1ccc(C(=O)NCCc2ncc(C)n2C2CC2)cn1	-0.934%	-1.55%	-13.9%	-9.08%	-2.62%
CC(=O)O[C@@](C)(C(=O)/C=C/C(C)(C)O)[C@H]1[C@H](O)C[C@@]2(C)[C@@H]3CC=C4[C@@H](C=C(O)C(=O)C4(C)C)[C@]3(C)C(=O)C[C@]12C	-3.01%	-6.64%	7.23%	-18.4%	1.26%
CC1(C(=O)NC2CCCCC2)Cn2nc(-c3cccs3)cc2C(=O)N1Cc1ccccc1Cl (stereo not given)	0.847%	7.94%	8.13%	5.95%	2.04%
Cc1ccc(C)c(NC(=O)CNS(=O)(=O)c2ccc3[nH]c(=O)oc3c2)c1	6.49%	5.2%	6.2%	-7.7%	3.02%
Cc1cccnc1C(=O)N[C@@H]1CN(S(C)(=O)=O)C[C@H]1CN(C)C	-3.14%	-4.67%	-0.958%	-4.7%	-1.55%
CSc1ccc(CNC(=O)c2cc3n(n2)CC(C)(C(=O)NC2CCCC2)N(C)C3=O)cc1 (stereo not given)	8.25%	-2.02%	2.66%	-0.957%	-4.03%
N#Cc1cccc(C(=O)N2C[C@@H](Oc3cccnc3)C[C@H]2C(=O)NC2CC2)c1	-5.05%	-9.42%	-2.9%	-13.7%	-6.47%
C=C1C(=O)O[C@@H]2/C=C(\C)CC/C=C(/C=O)[C@H](OC)[C@@H](OC(=O)C(C)C)[C@@H]12	0%	1.8%	0.669%	-10.5%	2.75%
COCCN1C(=O)N(CCCc2cccnc2)C(=O)C12CCN(C/C=C/c1ccc(OC)cc1)CC2	-8.75%	-6.84%	-5.29%	-22%	-11.5%
COCc1noc(CCNc2nc(C)nc3c2cnn3C)n1	-0.816%	0.408%	1.09%	-1.34%	-6.16%
O=S(=O)(c1ccc(Br)cc1)c1nnn2c1nc(NCc1ccccc1)c1ccccc12	-2.95%	-3.54%	-6.24%	-4.96%	-13%
COc1ccccc1NC(=O)N1CCCC2(CCC(=O)N(CC3CC3)C2)C1 (stereo not given)	-4.09%	-10.4%	-5.07%	-12.3%	-8.39%
CC1(C(=O)NC2CCCCC2)Cn2c(cc3occc32)C(=O)N1CCN1CCOCC1 (stereo not given)	-5.11%	5.11%	-3.08%	2.41%	-2.28%

SMILES	activity change, negative = inhibition [1]	activity change, negative = inhibition [2]	activity change, negative = inhibition [3]	activity change, negative = inhibition [4]	activity change, negative = inhibition [5]
Cc1cc(C)c2nonc2c1S(=O)(=O)N1C[C@@H](N(C)C)[C@H](C(C)C)C1	-8.61%	-0.758%	-4.45%	-1%	-1.12%
CCOc1ccccc1CNC(=O)c1cc2n(n1)CC(C)(C(=O)NC1CCCCCC1)N(C)C2=O (stereo not given)	1.52%	3.95%	-7.89%	0.398%	-1.21%
O=C(CCn1ccc2cc(S(=O)(=O)N3CCCC3)ccc21)NCc1ccccc1Br	5.53%	0%	7.1%	8.54%	4.33%
CCn1nccc1C(=O)N1CC[C@H](n2c(=O)n(C)c3cccnc32)C1	-3.71%	-0.372%	-0.828%	-0.912%	7.54%
C=C1C(=O)OC2/C=C(\COC(C)=O)CC/C=C(\C=O)CC(OC(=O)C(C)CC)C12 (stereo not given)	0.687%	10.6%	9.41%	-2.56%	7.14%
Cc1cccc(CSc2nnc3n(CC(C)C)c(=O)c4ccc(C(=O)NC(C)C)cc4n23)c1	1.1%	3.04%	10.5%	-5.91%	2.25%
COc1ccc(OC)c(CCN2C(=O)c3cc4ccccc4n3CC2(C)C(=O)NC2CCCC2)c1 (stereo not given)	-0.473%	4.79%	-1.76%	-1.11%	-4.16%
Cc1nc(CCNS(=O)(=O)c2c(C)nn(C)c2C)no1	1.11%	0.534%	2.98%	-0.429%	0.247%
Cc1cnc(-c2cccnc2)n1CC1CCN(S(=O)(=O)c2ccccc2)CC1	-1.64%	1.96%	0.495%	-10.6%	9.78%
Cc1nc(C(=O)NC2CC(c3cc(N4CCC(O)C4)ncn3)C2)cs1 (stereo not given)	-5.69%	-5.03%	-1.88%	-7.4%	-3.97%
C[C@H](C(=O)NC1CCCC1)N(C(=O)Cn1nnc(-c2ccc3c(c2)OCO3)n1)C1CCCCC1	3.38%	7.84%	4.93%	-17.2%	-4.76%
CCCn1c(=O)c2ccc(C(=O)NC(C)C)cc2n2c(=O)n(Cc3ccccc3F)nc12	-2.17%	4.66%	2.38%	-13.6%	0.586%
O=C(CCCc1nnc2n3nc(-c4ccccc4)nc3c3ccccc3n12)NCCc1ccc(Cl)cc1	-10.8%	2.43%	-4.38%	5.01%	-7.64%
CC(C)CCNC(=O)C1c2c(n(C)c3ccccc23)SCC(=O)N1c1ccc(F)cc1F (stereo not given)	6.17%	0%	-3.12%	-5.91%	1.13%
COCCCN1C(=O)c2cc3ccc(OC)cc3n2CC1(C)C(=O)NC1CCCCCC1 (stereo not given)	2.92%	0.328%	4.48%	5.3%	0.021%
COC(=O)C1=COC(O[C@@H]2O[C@H](COC(=O)/C=C/c3ccc(O)cc3)[C@@H](O)[C@H](O)[C@H]2O)C2C(CO)=CCC12 (stereo not given in full)	2.33%	1.52%	11%	-11.2%	-4.12%
C[C@]1(CO)[C@H]2Cc3sc(NC(=O)c4ccc(F)cc4)nc3[C@@H](CC(=O)NCc3ccccc3)[C@]2(C)CC[C@H]1O	-11.4%	-9.85%	-8.14%	-16.2%	-13.9%
Cc1cccc(Cn2nc3n(Cc4ccccc4)c(=O)c4ccc(C(=O)NCC(C)C)cc4n3c2=O)c1	5.1%	0%	9.19%	4.46%	6.38%
C=C1CCC2[C@](C)(CO)CCC[C@@]2(C)[C@@H]1CCC1=CCOC1=O (stereo not given in full)	2.29%	3.9%	8.86%	-12.9%	-6.12%
